Measurements from publication PMC4336329 (PLoS ONE, 2015).
In all, about 310,000 compounds went through this assay and about 2,200 (0.71%) showed an effect of 50% or more. Effects have a minus sign here. Some of the results follow.

Biological target: human ether-à-go-go-related gene (hERG) potassium channel (human, UniProt Q12809)
Test: primary screen, population patch clamp on CHO cells stably expressing hERG

human ether-à-go-go-related gene (hERG) potassium channel, sequence (Q12809 whole entry, looked up): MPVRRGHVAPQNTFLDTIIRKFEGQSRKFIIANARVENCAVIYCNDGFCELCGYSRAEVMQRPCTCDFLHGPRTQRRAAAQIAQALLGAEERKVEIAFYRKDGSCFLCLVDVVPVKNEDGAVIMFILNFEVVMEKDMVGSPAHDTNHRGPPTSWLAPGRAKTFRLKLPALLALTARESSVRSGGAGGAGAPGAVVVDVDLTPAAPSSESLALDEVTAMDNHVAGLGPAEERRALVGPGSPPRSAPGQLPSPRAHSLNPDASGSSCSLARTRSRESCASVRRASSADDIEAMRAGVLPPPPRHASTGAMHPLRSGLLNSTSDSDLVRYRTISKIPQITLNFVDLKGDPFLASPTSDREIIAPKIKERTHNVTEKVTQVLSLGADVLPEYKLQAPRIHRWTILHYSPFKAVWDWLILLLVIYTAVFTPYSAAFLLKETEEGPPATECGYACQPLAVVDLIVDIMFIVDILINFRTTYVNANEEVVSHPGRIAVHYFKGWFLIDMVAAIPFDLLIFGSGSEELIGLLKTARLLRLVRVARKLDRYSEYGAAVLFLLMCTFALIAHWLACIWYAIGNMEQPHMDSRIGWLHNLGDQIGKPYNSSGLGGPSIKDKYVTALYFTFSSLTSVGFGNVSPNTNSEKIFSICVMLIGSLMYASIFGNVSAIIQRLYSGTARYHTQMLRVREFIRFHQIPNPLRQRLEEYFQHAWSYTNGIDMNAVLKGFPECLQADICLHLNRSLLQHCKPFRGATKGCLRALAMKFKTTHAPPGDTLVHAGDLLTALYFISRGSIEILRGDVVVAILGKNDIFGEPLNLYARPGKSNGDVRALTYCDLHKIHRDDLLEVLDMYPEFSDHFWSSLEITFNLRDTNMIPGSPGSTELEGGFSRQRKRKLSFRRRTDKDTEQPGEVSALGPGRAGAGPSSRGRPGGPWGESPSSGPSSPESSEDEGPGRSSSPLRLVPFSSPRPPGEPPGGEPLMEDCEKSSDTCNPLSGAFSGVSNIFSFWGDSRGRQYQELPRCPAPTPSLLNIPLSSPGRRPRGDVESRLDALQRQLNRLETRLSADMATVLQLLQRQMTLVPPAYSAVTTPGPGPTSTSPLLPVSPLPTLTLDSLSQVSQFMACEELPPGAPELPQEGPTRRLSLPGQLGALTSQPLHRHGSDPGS

Compound | hERG current change (%, negative = inhibition) at 1uM [%]
COc1ccc(O)c(/C=N/c2sc(C)c(C)c2C#N)c1 | 10.4
On1c(-c2ccccc2)nc2ncccc21 | 13.4
CC(C)C[C@@H](COc1ccccc1)N1CCN(CCc2ccccc2)CCC1=O | -61.7
CC(C)(CSc1nncn1/N=C/c1ccco1)NS(=O)(=O)c1ccc(Cl)cc1 | -15.5
Cn1ccnc1C(=O)C1CCCN(Cc2cn[nH]c2-c2ccc(-c3ccccc3)cc2)C1 (centres unmarked) | -2.02
COCCNC(=O)/C=C/c1c(Cl)cccc1Cl | 10.1
COC(=O)c1ccc2c(c1)sc(=NC(=O)CCS(=O)(=O)c1ccccc1)n2C | -12.3
O=C(COc1ccc([N+](=O)[O-])cc1)N1CCN(c2nnc(-c3ccccc3)c3ccccc23)CC1 | -22.8
C=C(C)CNc1cc(S(=O)(=O)N2CCOCC2)ccc1Oc1ccccc1 | 9.91
CC(=O)Nc1ccc(S(=O)(=O)Nc2c(C)n(C)n(-c3ccccc3)c2=O)cc1 | 4.11
Cc1cc(C)cc(-n2c(C)cc(/C=C3\C(=N)N4N=C(CC(C)C)SC4=NC3=O)c2C)c1 | 8.06
C=CCN1C(=O)c2ccc(C(=O)N(CC)CC(=O)Nc3cc(Cl)ccc3C)cc2C1=O | 1.92
O=C(CN=C1NC(=O)C(c2ccccc2)(c2ccccc2)N1)NCc1ccc(F)cc1 | 5.22
CCOC(=O)CSc1nnc2cc(C)c3ccccc3n12 | -4.33
COc1ccc(N2CCN(C(CNC(=O)C3CCCCC3)c3ccco3)CC2)cc1 (centres unmarked) | 14.7
CCn1c(CN2CCOCC2)nnc1SCC(=O)Nc1ccccc1Cl | 18.9
N#Cc1c(Nc2ccccc2)c(C=O)c[nH]c1=O | 12.3
CNC(=O)c1cc2c(=O)n3cc(C)ccc3nc2n(C(C)C)c1=N | -81.9
CN(Cc1ccccc1)S(=O)(=O)c1cccs1 | 4.87
Cc1sc2c(=O)n3c(nc2c1C(=O)NCCCN1CCOCC1)CCCCC3 | -7.25
CCOC(=O)c1sc(-c2ccccc2)cc1NC(=O)CSc1nnnn1C | 10.1
COc1ccc(C2=C(Nc3ccccc3)c3ccccc3C2=O)cc1 | 0.527

Compound | hERG current change (%, negative = inhibition) at 1uM [%]
Cc1oc(-c2ccccc2Cl)nc1Cn1cccc1C1=NC(c2ccccc2)CO1 (centres unmarked) | 9.14
Cc1nc(NCCN2CCOCC2)c2nnn(Cc3ccccc3Cl)c2n1 | -4.81
O=C(Nc1ccccc1F)C1CCCC1 | 9.67
Cc1cc(Oc2ccc(=O)n(C)n2)nc(Oc2ccc(=O)[nH]n2)n1 | 5.36
COc1cccc(CNCCNC(=O)c2nonc2N)c1.Cl | 12.3
CNC(=S)N1CCc2cc(OC)c(OC)cc2C1COc1ccc(F)cc1 (centres unmarked) | -1.01
CCOc1ncccc1C(=O)OCc1ccc(C#N)cc1 | 1.85
Cc1ccc(-c2c[n+](CC(=O)N3c4ccccc4Sc4ccccc43)c3n2CCC3)cc1.[Cl-] | 4.24
CN(C)/C=C/C(=O)c1ccc(C(F)(F)F)cc1F | 1.32
Cn1cc(Cl)c(C(=O)NC2CCCCCC2)n1 | 9.2
CCN1CCN(C(=O)Nc2cc(Cl)ccc2OC)CC1 | 8.62
O=C(Nc1ccc(Cl)cc1Cl)c1ccc2c(c1)OCCO2 | -2.28
CCC(=O)c1ccc(OC(C)C(=O)NC2(C#N)CCCCC2)cc1 (centres unmarked) | 29
COc1ccc(NS(=O)(=O)c2ccc3[nH]c(=O)[nH]c3c2)cc1 | 12.6
CC(=O)N1CC(C)Sc2ccc(S(=O)(=O)NC3CCCCC3C)cc21 (centres unmarked) | 1.42
O=C1CSCN1c1ccc(Cl)c(Cl)c1 | 4.57
CSCC(O)Cn1[nH]c(=O)c2cc(Cl)c(Cl)cc2c1=O (centres unmarked) | 2.31
O=C(O)c1cc(S(=O)(=O)NCc2ccco2)c(Cl)cc1Cl | 8.86
Cc1cc(Cl)c(S(=O)(=O)N2CCSCC2)cc1OCC(N)=O | 2.36
NC(=O)C1(N2CCCCC2)CCN(S(=O)(=O)c2cc(Cl)ccc2Cl)CC1 | 6.2
O=C(Cn1nc(-c2ccccc2)ccc1=O)NCC1COCCO1 (centres unmarked) | 5.37
CN(C)c1nc2c(N)ncnc2n1[C@H]1O[C@@H](CO)[C@H](O)[C@@H]1O | 6.27
